Source: paper PMC4336329 (PLoS ONE, 2015)
Screen size: about 310,000 compounds; about 14,000 (4.5%) showed an effect of 50% or more. Effects have a minus sign here. Some of the results follow.

Target: human ether-à-go-go-related gene (hERG) potassium channel (human, UniProt Q12809)
Assay: primary screen, population patch clamp on CHO cells stably expressing hERG
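Also: peak tail current of the secondary pulse compared with the same well before compound.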

Sequence of human ether-à-go-go-related gene (hERG) potassium channel (Q12809 whole entry, looked up): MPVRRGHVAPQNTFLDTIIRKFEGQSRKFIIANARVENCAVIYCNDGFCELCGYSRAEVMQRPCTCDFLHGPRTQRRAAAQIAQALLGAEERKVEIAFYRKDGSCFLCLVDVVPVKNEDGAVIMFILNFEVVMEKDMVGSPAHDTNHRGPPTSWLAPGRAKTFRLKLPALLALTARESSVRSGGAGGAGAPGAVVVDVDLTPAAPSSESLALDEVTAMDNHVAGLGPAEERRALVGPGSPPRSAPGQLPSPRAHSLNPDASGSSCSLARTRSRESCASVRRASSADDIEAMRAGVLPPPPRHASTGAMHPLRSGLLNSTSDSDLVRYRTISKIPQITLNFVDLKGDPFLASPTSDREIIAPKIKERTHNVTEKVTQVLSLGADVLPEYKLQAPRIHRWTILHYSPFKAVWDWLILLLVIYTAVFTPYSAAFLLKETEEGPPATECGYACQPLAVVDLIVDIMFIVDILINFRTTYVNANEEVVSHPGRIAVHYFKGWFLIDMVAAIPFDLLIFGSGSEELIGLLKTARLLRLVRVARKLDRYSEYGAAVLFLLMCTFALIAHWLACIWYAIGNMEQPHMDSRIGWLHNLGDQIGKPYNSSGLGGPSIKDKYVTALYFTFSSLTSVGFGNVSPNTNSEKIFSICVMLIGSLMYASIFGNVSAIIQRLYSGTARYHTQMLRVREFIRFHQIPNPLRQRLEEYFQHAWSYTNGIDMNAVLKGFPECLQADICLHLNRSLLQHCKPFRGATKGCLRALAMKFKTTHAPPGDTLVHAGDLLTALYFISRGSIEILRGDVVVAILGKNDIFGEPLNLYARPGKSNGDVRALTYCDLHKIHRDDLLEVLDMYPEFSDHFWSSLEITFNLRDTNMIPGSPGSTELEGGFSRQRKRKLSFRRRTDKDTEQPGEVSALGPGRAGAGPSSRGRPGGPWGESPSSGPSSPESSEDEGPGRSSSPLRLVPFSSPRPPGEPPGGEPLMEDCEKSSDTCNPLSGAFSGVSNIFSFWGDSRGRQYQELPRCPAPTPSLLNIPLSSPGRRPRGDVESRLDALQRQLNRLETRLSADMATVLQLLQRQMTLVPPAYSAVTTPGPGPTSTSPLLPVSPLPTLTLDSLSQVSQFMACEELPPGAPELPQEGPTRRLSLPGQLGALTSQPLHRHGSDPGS

Row | Structure (SMILES) | hERG current change (%, negative = inhibition) at 10uM [%]
1 | Nc1nc(Nc2ccccc2)nc(N2CCOCC2)c1[N+](=O)[O-] | -21
2 | COc1ccc(NC(=O)CN(C2CCCCC2)S(C)(=O)=O)cc1Cl | -18.4
3 | CCOC(=O)C1(Cc2ccccc2C)CCCN(C(=O)CCn2nccc2C)C1 (centres unmarked) | -16.5
4 | O=S(=O)(Nc1cc(Cl)ccc1-n1cncn1)c1ccccc1Cl | -14.1
5 | CC(=O)Nc1ccc(S(=O)(=O)N[C@@H](C)C(=O)OCC(=O)NC2CCCC2)cc1 | -12
6 | CC(=O)CC(c1ccccc1[N+](=O)[O-])c1c(O)c2ccccc2oc1=O (centres unmarked) | 6.62
7 | CCc1nnc(NC(=O)CN2CCN(C(=O)c3ccccc3)CC2)s1 | 14.7
8 | O=Cc1ccc(-c2ccccc2OC(F)(F)F)o1 | 1.6
9 | O=c1[nH]c(C2CCCN(S(=O)(=O)c3ccccc3F)C2)nc2c1nnn2Cc1ccccc1Cl (centres unmarked) | 13.8
10 | CN(Cc1ccc(Cl)cc1)C(=O)c1ccc(S(=O)(=O)NCc2ccco2)cc1 | -51.8
11 | CC1(C)C(C=C(Cl)Cl)C1C(=O)Nc1ccc(S(=O)(=O)Nc2ncccn2)cc1 (centres unmarked) | 16.1
12 | O=C1c2ccccc2C(=O)N1CCCCSc1nnc2c(Cl)cc(Cl)cn12 | -80.2
13 | O=C1CN(C(=O)COC(=O)/C=C/c2ccco2)c2ccccc2N1 | 6.56
14 | Oc1ccc(/C=N/Nc2ccnc3cc(Cl)ccc23)c(O)c1 | 13.7
15 | O=C(Nc1nnc(SCC(=O)N2CCOCC2)s1)c1ccccc1 | 0.207
16 | C#CCn1c(=O)cc(C)c2ccccc21 | 8.17
17 | CC(C)(C)NC(=O)COc1ccc2oc3c(c2c1)CCCC3 | -3.4
18 | CC(=O)c1cnc2nc(SCc3ccccc3C)nn2c1C | 8.79
19 | CCNC(=S)N1CCN(c2cccc(C(F)(F)F)c2)CC1 | -13.5

Row | Structure (SMILES) | hERG current change (%, negative = inhibition) at 10uM [%]
20 | CC(Oc1ccc2c(c1)oc(=O)c1ccccc12)C(=O)NCC1CCC(C(=O)O)CC1 (centres unmarked) | 17.7
21 | CNS(=O)(=O)c1ccc2ccccc2c1 | 6.76
22 | COc1ccc(S(=O)(=O)N2CCC(C(=O)NCCC3=CCCCC3)CC2)cc1OC | -23.5
23 | CC(C)(C)NC(=O)C(=O)NN=C1CCCCCC1 | -3.89
24 | CCOc1ccc(N=C2NC(=O)SC2CC(=O)OC)cc1 (centres unmarked) | -1.2
25 | COC(=O)CSc1snnc1-c1ccc(F)cc1 | 1.52
26 | O.O=C([O-])c1ccn2c(C(=O)c3ccccc3)c(-c3ccccc3)cc2c1 | 12.8
27 | O=C(N1CCCCCC1)N1CCN(S(=O)(=O)c2cccc([N+](=O)[O-])c2)CC1 | -33.1
28 | CN1CCc2c(sc(NC(=O)c3ccc(S(=O)(=O)N4CCCCCC4)cc3)c2C(N)=O)C1 | 5.51
29 | COC(=O)c1ccc(Cn2cnc3c(cnn3-c3ccc(Cl)cc3)c2=O)o1 | 17.7
30 | Cc1nc2nc(N)nn2c(C)c1C/C=C/c1ccccc1 | -3.29
31 | O=C(CCNS(=O)(=O)c1ccc(Br)s1)NCc1ccc2c(c1)OCO2 | -36.6
32 | COC(=O)C1=C(C)N(CC2CC2)C(=NCc2cc(OC)c(OC)c(OC)c2)N[C@H]1c1ccccc1 | -17.5
33 | CN(C1=C(NC(=O)c2ccc(Cl)cc2)C(=O)c2ccccc2C1=O)c1ccccc1 | -5.62
34 | N#CCSc1nc2[nH]ncc2c(=O)n1-c1ccccc1Br | -1.9
35 | CN(C)CCCn1c2c(c(SCC(=O)Nc3ccc4c(c3)OCO4)nc1=O)CCCC2 | -39.7
36 | O=C(Oc1ccccc1N1CCOCC1)c1ccccc1 | 12.3
37 | COc1ccccc1CNC(=O)c1n[nH]c2ccccc12 | 8.97
38 | COc1cccc(CNC(=O)CN2C(=O)CSc3ccc(S(=O)(=O)N4CCOCC4)cc32)c1 | -14.6

Row | Structure (SMILES) | hERG current change (%, negative = inhibition) at 10uM [%]
39 | CO/N=C\c1cc(C(=O)c2ccc(Cl)cc2Cl)cn1C | -11.9
40 | CCc1ccc(OCC(=O)N2CCN(c3ccccn3)CC2)c(Br)c1 | -40.8
41 | O=C(CN1C(=O)CCSc2ccccc21)Nc1ccc2c(c1)OCO2 | -13.6
42 | Cc1cc(Nc2ccccc2)nn1C(=O)c1ccc(Cl)cc1 | 17.8
43 | CCOC(=O)C1CCC(CNCc2ccc(Cl)cc2)CC1 (centres unmarked) | -69.2
44 | CS(=O)(=O)c1ncc(Cl)c(C(=O)Nc2ccc(N3CCOCC3)cc2)n1 | 4.23
45 | CCN(CC)CC(=O)Nc1sc(C)c(C)c1C(=O)c1ccc(C)cc1 | -0.341
46 | CCOc1ccc(N2CC(O)(c3cccs3)[N+]3=C2CCCC3)cc1.[Br-] (centres unmarked) | -69.7
47 | CCCOc1ccc(C(=O)NCCC(=O)NCCCC(=O)O)cc1 | 11.8
48 | CCC1=C(OC(=O)N(CC)CC)N2C(=O)OC(=NCc3ccccc3)[C@]2(C)[C@H]2C1=CC[C@H]1C(=O)N(CC)C(=O)[C@H]12 | -2.64
49 | COc1ccc(-c2noc(CNC(=O)c3ccoc3C)n2)cc1 | -12.3
50 | CC(C)(C)N/C=C(\C#N)S(=O)(=O)c1ccc(Br)cc1 | -10.5
51 | Cc1cc(C)c(C)c(S(=O)(=O)Nc2ccc(OCC(=O)O)cc2)c1C | 12.8
52 | CC(C)Oc1ccc(C(=O)NC(Cc2c[nH]c3ccccc23)C(=O)NN)cc1 (centres unmarked) | 4.25
53 | CC(Oc1ccccc1)C(=O)N=Nc1c(O)[nH]c2ccc([N+](=O)[O-])cc12 (centres unmarked) | 8.25
54 | COc1ccccc1N(CC(=O)NC(C)C)S(=O)(=O)c1cccs1 | 4.96
55 | CCN1CC2CCCC3(C1)C(=O)NC1(CCCCC1)N=C23 (centres unmarked) | 5.63
56 | CCOC(=O)c1ccc(Oc2nc(NC(C)(C)C)nc(N(C)C)n2)cc1 | 1.23
